Reference: the supplement of paper PMC8728848
The list shows a part of the results.

Tests used:
Assay in all cases: glycan array binding signal (z-score within array); higher = stronger binding
Conditions in all cases: glycan notation: IUPAC condensed, linker removed
[1] = molecular target: Gal(b1-3)GlcNAc(b1-2)Man(a1-3)[Gal(b1-3)GlcNAc(b1-2)Man(a1-6)]Man(b1-4)GlcNAc(b1-4)GlcNAc
In short: (§1)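 The binding signal is a Z-score computed within each array. Data were drawn from 3228 arrays in the Consortium for Functional Glycomics database, restricted to those with a known protein sequence. Scores were averaged over arrays of the same protein sequence at different concentrations or buffers, and over linkers, and negative values can be taken as non-binding.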

[2] = molecular target: Gal(b1-3)GlcNAc(b1-2)Man(a1-3)[Gal(b1-3)GlcNAc(b1-2)Man(a1-6)]Man(b1-4)GlcNAc(b1-4)[Fuc(a1-6)]GlcNAc
In short: as §1

[3] = molecular target: Gal(b1-3)GlcNAc(b1-2)Man(a1-3)[GlcNAc(b1-4)][Gal(b1-3)GlcNAc(b1-2)Man(a1-6)]Man(b1-4)GlcNAc(b1-4)GlcNAc
In short: as §1

[4] = molecular target: Gal(b1-3)GlcNAc(b1-2)[Gal(b1-3)GlcNAc(b1-6)]Man(a1-6)[Gal(b1-3)GlcNAc(b1-2)Man(a1-3)]Man(b1-4)GlcNAc(b1-4)GlcNAc
In short: as §1

[5] = molecular target: Gal(b1-3)GlcNAc(b1-3)Gal(b1-3)GlcNAc
In short: as §1

[6] = molecular target: Gal(b1-3)GlcNAc(b1-3)Gal(b1-4)Glc
In short: as §1

[7] = molecular target: Gal(b1-3)GlcNAc(b1-3)Gal(b1-4)GlcNAc
In short: as §1

[8] = molecular target: Gal(b1-3)GlcNAc(b1-3)Gal(b1-4)GlcNAc(b1-2)Man(a1-3)[Gal(b1-3)GlcNAc(b1-3)Gal(b1-4)GlcNAc(b1-2)Man(a1-6)]Man(b1-4)GlcNAc(b1-4)GlcNAc
In short: as §1

[9] = molecular target: Gal(b1-3)GlcNAc(b1-3)Gal(b1-4)GlcNAc(b1-2)[Gal(b1-3)GlcNAc(b1-3)Gal(b1-4)GlcNAc(b1-6)]Man(a1-6)[Gal(b1-3)GlcNAc(b1-3)Gal(b1-4)GlcNAc(b1-2)Man(a1-3)]Man(b1-4)GlcNAc(b1-4)[Fuc(a1-6)]GlcNAc
In short: as §1

[10] = molecular target: Gal(b1-3)GlcNAc(b1-3)Gal(b1-4)GlcNAc(b1-3)Gal(b1-4)GlcNAc(b1-2)[Gal(b1-3)GlcNAc(b1-3)Gal(b1-4)GlcNAc(b1-3)Gal(b1-4)GlcNAc(b1-6)]Man(a1-6)[Gal(b1-3)GlcNAc(b1-3)Gal(b1-4)GlcNAc(b1-3)Gal(b1-4)GlcNAc(b1-2)Man(a1-3)]Man(b1-4)GlcNAc(b1-4)[Fuc(a1-6)]GlcNAc
In short: as §1

[11] = molecular target: Gal(b1-3)GlcNAc(b1-3)Gal(b1-4)GlcNAc(b1-6)[Gal(b1-3)GlcNAc(b1-3)]Gal(b1-4)Glc
In short: as §1

[12] = molecular target: Gal(b1-3)GlcNAc(b1-3)Gal(b1-4)[Fuc(a1-3)]GlcNAc
In short: as §1

[13] = molecular target: Gal(b1-3)GlcNAc(b1-3)Gal(b1-4)[Fuc(a1-3)]GlcNAc(b1-6)[Gal(b1-3)GlcNAc(b1-3)]Gal(b1-4)Glc
In short: as §1

[14] = molecular target: Gal(b1-3)GlcNAc(b1-3)GalNAc
In short: as §1

[15] = molecular target: Gal(b1-3)GlcNAc(b1-6)Gal(b1-4)GlcNAc
In short: as §1

[16] = molecular target: Gal(b1-3)GlcNAc(b1-6)GalNAc
In short: as §1

[17] = molecular target: Gal(b1-3)GlcNAc(b1-6)[Gal(b1-3)]GalNAc
In short: as §1

Gal(b1-3)GlcNAc6S = molecular target: Gal(b1-3)GlcNAc6S
In short: as §1

[18] = molecular target: Gal(b1-3)[Fuc(a1-4)]GlcNAc
In short: as §1

[19] = molecular target: Gal(b1-3)[Fuc(a1-4)]GlcNAc(b1-2)Man
In short: as §1

[20] = molecular target: Gal(b1-3)[Fuc(a1-4)]GlcNAc(b1-2)Man(a1-3)[Gal(b1-3)[Fuc(a1-4)]GlcNAc(b1-2)Man(a1-6)]Man(b1-4)GlcNAc(b1-4)[Fuc(a1-6)]GlcNAc
In short: as §1

[21] = molecular target: Gal(b1-3)[Fuc(a1-4)]GlcNAc(b1-3)Gal(b1-3)[Fuc(a1-4)]GlcNAc
In short: as §1

[22] = molecular target: Gal(b1-3)[Fuc(a1-4)]GlcNAc(b1-3)Gal(b1-4)[Fuc(a1-3)]GlcNAc
In short: as §1

[23] = molecular target: Gal(b1-3)[Fuc(a1-4)]GlcNAc(b1-6)GalNAc
In short: as §1

[24] = molecular target: Gal(b1-3)[GlcNAc(b1-6)]GalNAc
In short: as §1

[25] = molecular target: Gal(b1-3)[Neu5Ac(a2-6)]GalNAc
In short: as §1

[26] = molecular target: Gal(b1-3)[Neu5Ac(a2-6)]GlcNAc(b1-4)Gal(b1-4)Glc
In short: as §1

[27] = molecular target: Gal(b1-3)[Neu5Ac(b2-6)]GalNAc
In short: as §1

Gal(b1-4)Gal = molecular target: Gal(b1-4)Gal
In short: as §1

[28] = molecular target: Gal(b1-4)GalNAc(a1-3)[Fuc(a1-2)]Gal(b1-4)GlcNAc
In short: as §1

[29] = molecular target: Gal(b1-4)GalNAc(b1-3)[Fuc(a1-2)]Gal(b1-4)GlcNAc
In short: as §1

Gal(b1-4)Glc = molecular target: Gal(b1-4)Glc
In short: as §1

Gal(b1-4)Glc6S = molecular target: Gal(b1-4)Glc6S
In short: as §1

Gal(b1-4)GlcNAc = molecular target: Gal(b1-4)GlcNAc
In short: as §1

[30] = molecular target: Gal(b1-4)GlcNAc(a1-6)Gal(b1-4)GlcNAc
In short: as §1

Gal(b1-4)GlcNAc(b1-2)Man = molecular target: Gal(b1-4)GlcNAc(b1-2)Man
In short: as §1

[31] = molecular target: Gal(b1-4)GlcNAc(b1-2)Man(a1-3)Man(b1-4)GlcNAc(b1-4)GlcNAc
In short: as §1

[32] = molecular target: Gal(b1-4)GlcNAc(b1-2)Man(a1-3)[Gal(b1-4)GlcNAc(b1-2)Man(a1-6)]Man(b1-4)GlcNAc(b1-4)GlcNAc
In short: as §1

[33] = molecular target: Gal(b1-4)GlcNAc(b1-2)Man(a1-3)[Gal(b1-4)GlcNAc(b1-2)Man(a1-6)]Man(b1-4)GlcNAc(b1-4)[Fuc(a1-6)]GlcNAc
In short: as §1

[34] = molecular target: Gal(b1-4)GlcNAc(b1-2)Man(a1-3)[Gal(b1-4)GlcNAc(b1-2)Man(a1-6)][Gal(b1-4)GlcNAc(b1-4)]Man(b1-4)GlcNAc(b1-4)[Fuc(a1-6)]GlcNAc
In short: as §1

[35] = molecular target: Gal(b1-4)GlcNAc(b1-2)Man(a1-3)[Gal(b1-4)GlcNAc(b1-2)Man(a1-6)][GlcNAc(b1-4)]Man(b1-4)GlcNAc(b1-4)[Fuc(a1-6)]GlcNAc
In short: as §1

[36] = molecular target: Gal(b1-4)GlcNAc(b1-2)Man(a1-3)[GlcNAc(b1-2)Man(a1-6)]Man(b1-4)GlcNAc(b1-4)GlcNAc
In short: as §1

[37] = molecular target: Gal(b1-4)GlcNAc(b1-2)Man(a1-3)[GlcNAc(b1-4)][Gal(b1-4)GlcNAc(b1-2)Man(a1-6)]Man(b1-4)GlcNAc(b1-4)GlcNAc
In short: as §1

[38] = molecular target: Gal(b1-4)GlcNAc(b1-2)Man(a1-3)[Man(a1-6)]Man(b1-4)GlcNAc(b1-4)GlcNAc
In short: as §1

[39] = molecular target: Gal(b1-4)GlcNAc(b1-2)Man(a1-6)Man(b1-4)GlcNAc(b1-4)GlcNAc
In short: as §1

B1: CFEM-CGl (Candida glabrata), Q6FRS0 (protein)
chain: VLATPPACLLACVAQVSKQSSQCHTLNQVGCFCENENTAIKNCLDSICPNGNSDAAYTAFKNSCGDVGKAVASV
- glycan array binding signal (z-score) [1]: -0.248
- glycan array binding signal (z-score) [2]: -0.387
- glycan array binding signal (z-score) [3]: -0.231
- glycan array binding signal (z-score) [4]: -0.388
- glycan array binding signal (z-score) [5]: -0.175
- glycan array binding signal (z-score) [6]: -0.457
- glycan array binding signal (z-score) [7]: -0.24
- glycan array binding signal (z-score) [8]: -0.236
- glycan array binding signal (z-score) [9]: 0.279
- glycan array binding signal (z-score) [10]: 0.386
- glycan array binding signal (z-score) [11]: -0.31
- glycan array binding signal (z-score) [12]: -0.497
- glycan array binding signal (z-score) [13]: -0.431
- glycan array binding signal (z-score) [14]: -0.243
- glycan array binding signal (z-score) [15]: -0.142
- glycan array binding signal (z-score) [16]: -0.334
- glycan array binding signal (z-score) [17]: 0.496
- glycan array binding signal (z-score) (Gal(b1-3)GlcNAc6S): -0.272
- glycan array binding signal (z-score) [18]: -0.307
- glycan array binding signal (z-score) [19]: -0.087
- glycan array binding signal (z-score) [20]: -0.165
- glycan array binding signal (z-score) [21]: -0.485
- glycan array binding signal (z-score) [22]: -0.158
- glycan array binding signal (z-score) [23]: 0.183
- glycan array binding signal (z-score) [24]: 0.824
- glycan array binding signal (z-score) [25]: 2.93
- glycan array binding signal (z-score) [26]: -0.359
- glycan array binding signal (z-score) [27]: -0.064
- glycan array binding signal (z-score) (Gal(b1-4)Gal): -0.278
- glycan array binding signal (z-score) [28]: -0.31
- glycan array binding signal (z-score) [29]: -0.247
- glycan array binding signal (z-score) (Gal(b1-4)Glc): -0.358
- glycan array binding signal (z-score) (Gal(b1-4)Glc6S): -0.011
- glycan array binding signal (z-score) (Gal(b1-4)GlcNAc): -0.25
- glycan array binding signal (z-score) [30]: 0.356
- glycan array binding signal (z-score) (Gal(b1-4)GlcNAc(b1-2)Man): -0.494
- glycan array binding signal (z-score) [31]: -0.351
- glycan array binding signal (z-score) [32]: -0.128
- glycan array binding signal (z-score) [33]: -0.299
- glycan array binding signal (z-score) [34]: -0.455
- glycan array binding signal (z-score) [35]: -0.334
- glycan array binding signal (z-score) [36]: -0.327
- glycan array binding signal (z-score) [37]: -0.453
- glycan array binding signal (z-score) [38]: -0.303
- glycan array binding signal (z-score) [39]: -0.362
